Measured values from publication PMC8266636, “Rrp1 translocase and ubiquitin ligase activities restrict the genome destabilising effects of Rad51 in fission yeast” (Nucleic Acids Research, 2020).
Results are given in words; binding and its absence hold for the method and conditions named. For part of these data: In cells and extracts the contact can be indirect. Some entries that bind do so weakly or less than the wild type. For part of these data: Tags and fused reporters may be left off the sequences shown. One block for each binder: values may come before it.

Experiments:
[1] = target: T1, Rrp1-FLAG (overproduced in S. pombe) (S. pombe) (UniProt O13762); assay: co-IP; S. pombe extracts (H buffer) with native levels of Rad51 and overproduced FLAG-tagged Rrp1 or Rrp2; precipitated with anti-FLAG M2 affinity gel, eluted with 3xFLAG peptide, western blot with anti-FLAG and anti-Rad51
T1 sequence: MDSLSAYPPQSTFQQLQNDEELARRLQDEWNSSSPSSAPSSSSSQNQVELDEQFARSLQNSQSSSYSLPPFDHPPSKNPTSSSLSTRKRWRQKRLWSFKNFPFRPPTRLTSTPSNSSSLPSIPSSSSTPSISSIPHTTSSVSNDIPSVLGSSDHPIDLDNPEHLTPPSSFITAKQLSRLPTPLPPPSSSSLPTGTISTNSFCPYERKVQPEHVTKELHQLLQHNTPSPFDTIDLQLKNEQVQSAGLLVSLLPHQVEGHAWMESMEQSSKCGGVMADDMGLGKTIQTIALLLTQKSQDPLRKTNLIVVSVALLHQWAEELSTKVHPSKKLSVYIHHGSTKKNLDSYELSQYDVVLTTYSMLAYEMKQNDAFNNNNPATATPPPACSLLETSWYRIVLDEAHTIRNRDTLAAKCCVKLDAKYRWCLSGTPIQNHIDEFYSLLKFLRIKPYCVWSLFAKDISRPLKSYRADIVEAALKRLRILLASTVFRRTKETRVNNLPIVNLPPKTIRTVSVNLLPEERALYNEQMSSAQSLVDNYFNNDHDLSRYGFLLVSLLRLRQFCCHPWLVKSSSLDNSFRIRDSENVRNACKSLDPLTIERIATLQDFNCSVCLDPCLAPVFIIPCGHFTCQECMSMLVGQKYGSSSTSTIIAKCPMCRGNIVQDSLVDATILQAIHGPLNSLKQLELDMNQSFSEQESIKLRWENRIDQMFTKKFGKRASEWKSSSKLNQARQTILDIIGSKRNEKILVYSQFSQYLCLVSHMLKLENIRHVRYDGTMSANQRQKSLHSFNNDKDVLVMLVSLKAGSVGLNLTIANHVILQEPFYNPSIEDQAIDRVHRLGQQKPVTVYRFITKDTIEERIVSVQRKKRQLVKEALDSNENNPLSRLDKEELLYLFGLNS

[2] = target: T2, Rrp2-FLAG (overproduced in S. pombe) (S. pombe) (UniProt O60177); assay: as above
T2 sequence: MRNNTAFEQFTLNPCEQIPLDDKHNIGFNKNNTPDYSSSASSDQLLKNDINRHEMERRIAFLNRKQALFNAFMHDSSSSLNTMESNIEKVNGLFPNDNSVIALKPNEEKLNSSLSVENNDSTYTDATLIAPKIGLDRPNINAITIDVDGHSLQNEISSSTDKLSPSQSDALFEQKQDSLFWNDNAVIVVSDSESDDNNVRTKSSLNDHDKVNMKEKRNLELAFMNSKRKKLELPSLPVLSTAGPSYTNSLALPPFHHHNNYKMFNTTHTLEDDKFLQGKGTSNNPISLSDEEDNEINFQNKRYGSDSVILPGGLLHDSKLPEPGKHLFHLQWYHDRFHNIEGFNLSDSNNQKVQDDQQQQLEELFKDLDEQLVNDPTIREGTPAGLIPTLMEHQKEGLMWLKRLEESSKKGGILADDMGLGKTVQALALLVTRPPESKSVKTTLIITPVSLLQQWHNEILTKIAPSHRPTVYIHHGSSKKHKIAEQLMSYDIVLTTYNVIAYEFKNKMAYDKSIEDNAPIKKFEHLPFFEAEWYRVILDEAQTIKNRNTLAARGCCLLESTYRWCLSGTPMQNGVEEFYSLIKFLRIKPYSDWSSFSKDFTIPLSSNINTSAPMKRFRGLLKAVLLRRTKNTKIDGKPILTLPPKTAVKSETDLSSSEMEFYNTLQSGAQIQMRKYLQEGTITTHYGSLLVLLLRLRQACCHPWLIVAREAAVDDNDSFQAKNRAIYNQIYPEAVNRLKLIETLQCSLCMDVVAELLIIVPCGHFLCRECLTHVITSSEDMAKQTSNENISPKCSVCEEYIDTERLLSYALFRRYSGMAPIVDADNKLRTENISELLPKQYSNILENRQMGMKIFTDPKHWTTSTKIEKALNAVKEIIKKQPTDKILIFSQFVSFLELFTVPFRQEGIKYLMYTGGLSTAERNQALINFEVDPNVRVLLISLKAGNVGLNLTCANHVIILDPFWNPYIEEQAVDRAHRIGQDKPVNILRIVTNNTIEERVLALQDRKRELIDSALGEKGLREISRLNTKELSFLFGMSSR

[3] = target: T3, Rrp2 (yeast two-hybrid fusion) (S. pombe) (UniProt O60177); assay: two-hybrid; Gal4-based Matchmaker Two-Hybrid System 3 (Clontech), pGADT7 and pGBKT7 fusions in S. cerevisiae AH109; growth on SD DO-3 (low stringency) and SD DO-4 (high stringency), 3-5 days at 28°C
T3 sequence: T2 sequence

[4] = target: T4, C-terminal fragment of Rrp1 (residues 695-897) containing the C-helicase domain (S. pombe) (UniProt O13762); assay: as above
T4 sequence: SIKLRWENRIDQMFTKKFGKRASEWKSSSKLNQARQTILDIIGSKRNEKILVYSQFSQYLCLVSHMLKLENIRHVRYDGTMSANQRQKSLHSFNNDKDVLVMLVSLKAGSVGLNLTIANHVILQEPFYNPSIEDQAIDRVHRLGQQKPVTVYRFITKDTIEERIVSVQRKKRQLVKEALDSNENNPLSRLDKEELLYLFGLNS

[5] = target: T5, Rrp1 (yeast two-hybrid fusion) (S. pombe) (UniProt O13762); assay: as above
T5 sequence: T1 sequence

- binding [1]: binds
- binding [2]: no binding
B1: Rad51 (purified) (natural protein, S. pombe, UniProt P36601 1-365, looked up)
chain: MADTEVEMQVSAADTNNNENGQAQSNYEYDVNVQDEEDEAAAGPMPLQMLEGNGITASDIKKIHEAGYYTVESIAYTPKRQLLLIKGISEAKADKLLGEASKLVPMGFTTATEYHIRRSELITITTGSKQLDTLLQGGVETGSITELFGEFRTGKSQICHTLAVTCQLPIDMGGGEGKCLYIDTEGTFRPVRLLAVADRYGLNGEEVLDNVAYARAYNADHQLELLQQAANMMSESRFSLLVVDSCTALYRTDFSGRGELSARQMHLARFMRTLQRLADEFGIAVVITNQVVAQVDGISFNPDPKKPIGGNILAHSSTTRLSLRKGRGEQRICKIYDSPCLPESEAIFAINSDGVGDPKEIIAPV
notes: Rad51 of Schizosaccharomyces pombe; also called purified Rad51

- binding [3]: no binding
B2: Rad51-N (N-terminal, residues 1-117) (domain or fragment, UniProt P36601 1-117)
chain: MADTEVEMQVSAADTNNNENGQAQSNYEYDVNVQDEEDEAAAGPMPLQMLEGNGITASDIKKIHEAGYYTVESIAYTPKRQLLLIKGISEAKADKLLGEASKLVPMGFTTATEYHIR

- binding [4]: binds
- binding [5]: binds
- binding [3]: no binding
B3: Rad51-C (C-terminal, residues 114-365 containing the Walker A and B motifs) (domain or fragment, UniProt P36601 114-365)
chain: YHIRRSELITITTGSKQLDTLLQGGVETGSITELFGEFRTGKSQICHTLAVTCQLPIDMGGGEGKCLYIDTEGTFRPVRLLAVADRYGLNGEEVLDNVAYARAYNADHQLELLQQAANMMSESRFSLLVVDSCTALYRTDFSGRGELSARQMHLARFMRTLQRLADEFGIAVVITNQVVAQVDGISFNPDPKKPIGGNILAHSSTTRLSLRKGRGEQRICKIYDSPCLPESEAIFAINSDGVGDPKEIIAPV
